Results: patent US20260176373A1 (BRIGHT BIOLOGICS, published 2026)

Tests used:
[1] = molecular target: T1, human TROP2 (Trophoblast cell-surface antigen 2) (human, UniProt P09758 27-323); assay: flow cytometry whole cell binding, CHO-h-TROP2 stable cells
T1 construct: whole, on cells; also called TACSTD2; h-TROP2
T1 sequence (looked up): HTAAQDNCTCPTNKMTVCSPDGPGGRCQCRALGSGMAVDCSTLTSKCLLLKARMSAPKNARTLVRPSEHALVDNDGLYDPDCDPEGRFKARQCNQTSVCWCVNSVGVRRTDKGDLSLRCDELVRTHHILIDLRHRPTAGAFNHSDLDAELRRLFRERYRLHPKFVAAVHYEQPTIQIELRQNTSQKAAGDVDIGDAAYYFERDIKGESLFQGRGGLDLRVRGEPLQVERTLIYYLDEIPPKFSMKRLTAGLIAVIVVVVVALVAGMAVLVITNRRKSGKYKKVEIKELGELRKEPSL

[2] = molecular target: T2, human HER2 (human epidermal growth factor receptor 2) (human, UniProt P04626); assay: flow cytometry whole cell binding, CHO-h-HER2 stable cells
T2 construct: whole, on cells; also called ERBB2; h-HER2

[3] = molecular target: T1, human TROP2 (Trophoblast cell-surface …); assay: cell-based or functional assay
[4] = molecular target: T2, human HER2 (human epidermal growth …); assay: flow cytometry whole cell binding, SKBR3 cells
[5] = molecular target: T2, human HER2 (human epidermal growth …); assay: cell-based or functional assay
[6] = molecular target: T1, human TROP2 (Trophoblast cell-surface …); assay: cell-based or functional assay; remark: listed apart in the source
[7] = molecular target: T3, recombinant h-HER2 ECD (his-tagged) (human, UniProt P04626 fragment); assay: BLI, antibody loaded on the sensor at 300 nM, 200 nM h-HER2 ECD-his
T3 construct: extracellular domain; Analyte in the BLI assay at 200 nM; also called human HER2; not shown: his tag

B1: 11D5+1H11-hv10_Fc (bispecific antibody)
chain: QVQLVESGGGVVQPGRSLRLSCAASGSTFSSLAMHWVRQAPGKERELVAAISYSGGYTYYADSVKGRFTISRDNSKNTLYLQMNSLRAEDTAVYYCAASSIFIGAYDYWGQGTLVTVSSGSGGSGGSGGSGEVQLVESGGGLVQPGGSLRLSCAASGGTFSRYIMSWFRQAPGKEREFVSAISGSGGSTYYADSVKGRFTISRDNSKNTLYLQMNSLRAEDTAVYYCASTFYSTTYVAQRDARDYAYWGQGTQVTVSS[here human IgG1 Fc with C220S (EU numbers) without letters]
notes: anti-HER2/TROP2 BsAb, C220S in the hinge region
For B1, the EC50 [1] was 13 nM and the EC50 [2] was 0.34 nM.

B2: 1H11-hv10+11D5_Fc (bispecific antibody)
chain: EVQLVESGGGLVQPGGSLRLSCAASGGTFSRYIMSWFRQAPGKEREFVSAISGSGGSTYYADSVKGRFTISRDNSKNTLYLQMNSLRAEDTAVYYCASTFYSTTYVAQRDARDYAYWGQGTQVTVSSGSGGSGGSGGSGQVQLVESGGGVVQPGRSLRLSCAASGSTFSSLAMHWVRQAPGKERELVAAISYSGGYTYYADSVKGRFTISRDNSKNTLYLQMNSLRAEDTAVYYCAASSIFIGAYDYWGQGTLVTVSS[here human IgG1 Fc with C220S (EU numbers) without letters]
notes: anti-HER2/TROP2 BsAb, C220S in the hinge region; also called tandem format
Work on B2 yielded an EC50 [1] of 1.98 nM and an EC50 [2] of 1.57 nM.

B3: 1H11-hv8+11D5_Fc (bispecific antibody)
chain: EVQLVESGGGLVQPGGSLRLSCAASGGTFSRYIMGWFRQAPGKEREFVSTISGSGGSTYYADSVKGRFTISRDNSKNTLYLQMNSLRAEDTAVYYCASTFYSTTYVAQRDARDYAYWGQGTQVTVSSGSGGSGGSGGSGQVQLVESGGGVVQPGRSLRLSCAASGSTFSSLAMHWVRQAPGKERELVAAISYSGGYTYYADSVKGRFTISRDNSKNTLYLQMNSLRAEDTAVYYCAASSIFIGAYDYWGQGTLVTVSS[here human IgG1 Fc with C220S (EU numbers) without letters]
notes: anti-HER2/TROP2 BsAb, C220S in the hinge region; also called tandem format BsAb
In the case of B3, the “IC50, nM, Killing of NCI-H441 cells by 2nd Ab-MMAE” value [3] is reported as 0.12 nM and the binding result [4] is reported as “binds”.

B4: 11D5_Fc_MMAE (other)
chain: QVQLVESGGGVVQPGRSLRLSCAASGSTFSSLAMHWVRQAPGKERELVAAISYSGGYTYYADSVKGRFTISRDNSKNTLYLQMNSLRAEDTAVYYCAASSIFIGAYDYWGQGTLVTVSS[here human IgG1 Fc with C220S (EU numbers) without letters]
modifications: vc-MMAE conjugated to the hinge cysteines (2 Cysteines in each hinge region); DAR 4.0
With B4 the “IC50, nM, in killing assay, AU-565 cells” value [5] was 0.0289 nM, the “IC50, nM, in killing assay, Colo205 cells” value [5] was 19.6 nM and the “IC50, nM, in killing assay, N87 cells” value [5] was 0.094 nM. For the same binder, the “IC50, nM, in killing assay, NCI-H441 cells” value [5] was 13 nM, the “IC50, nM, in killing assay, NCI-H1975 cells” value [5] was 14.7 nM and the “IC50, nM, in killing assay, OE-19 cells” value [5] was 0.111 nM. The “IC50, nM, in killing assay, SK-OV3 cells” value [5] was 0.072 nM, the “IC50, nM, in killing assay, SKBR3 cells” value [5] was 0.0247 nM and the “IC50, nM, in killing assay, T-47D cells” value [5] was 38.9 nM.

B5: 1H11-hv8_Fc_MMAE (other)
chain: EVQLVESGGGLVQPGGSLRLSCAASGGTFSRYIMGWFRQAPGKEREFVSTISGSGGSTYYADSVKGRFTISRDNSKNTLYLQMNSLRAEDTAVYYCASTFYSTTYVAQRDARDYAYWGQGTQVTVSS[here human IgG1 Fc with C220S (EU numbers) without letters]
modifications: vc-MMAE conjugated to the hinge cysteines (2 Cysteines in each hinge region); DAR 3.8
In the case of B5, the “IC50, nM, in killing assay, AU-565 cells” value [6] is reported as 0.0336 nM, the “IC50, nM, in killing assay, Colo205 cells” value [6] is reported as 0.42 nM and the “IC50, nM, in killing assay, N87 cells” value [6] is reported as 0.095 nM. For the same binder, the “IC50, nM, in killing assay, NCI-H441 cells” value [6] was 0.054 nM, the “IC50, nM, in killing assay, NCI-H1975 cells” value [6] was 0.29 nM and the “IC50, nM, in killing assay, OE-19 cells” value [6] was 0.889 nM. For the same binder, the “IC50, nM, in killing assay, SK-OV3 cells” value [6] was 1.21 nM, the “IC50, nM, in killing assay, SKBR3 cells” value [6] was 0.0282 nM and the “IC50, nM, in killing assay, T-47D cells” value [6] was 0.21 nM.

B6: 1H11-hv10_Fc_11D5 (bispecific antibody)
chain: EVQLVESGGGLVQPGGSLRLSCAASGGTFSRYIMSWFRQAPGKEREFVSAISGSGGSTYYADSVKGRFTISRDNSKNTLYLQMNSLRAEDTAVYYCASTFYSTTYVAQRDARDYAYWGQGTQVTVSS[here human IgG1 Fc with C220S (EU numbers) without letters]GSGGSGGSGGSGGSGQVQLVESGGGVVQPGRSLRLSCAASGSTFSSLAMHWVRQAPGKERELVAAISYSGGYTYYADSVKGRFTISRDNSKNTLYLQMNSLRAEDTAVYYCAASSIFIGAYDYWGQGTLVTVSS
notes: anti-HER2/TROP2 BsAb, C220S in the hinge region; also called N-, C-terminal format
In the case of B6, the EC50 [1] is reported as 3.46 nM and the EC50 [2] is reported as 0.335 nM.

B7: 1H11-hv8_Fc_11D5 (bispecific antibody)
chain: EVQLVESGGGLVQPGGSLRLSCAASGGTFSRYIMGWFRQAPGKEREFVSTISGSGGSTYYADSVKGRFTISRDNSKNTLYLQMNSLRAEDTAVYYCASTFYSTTYVAQRDARDYAYWGQGTQVTVSS[here human IgG1 Fc with C220S (EU numbers) without letters]GSGGSGGSGGSGGSGQVQLVESGGGVVQPGRSLRLSCAASGSTFSSLAMHWVRQAPGKERELVAAISYSGGYTYYADSVKGRFTISRDNSKNTLYLQMNSLRAEDTAVYYCAASSIFIGAYDYWGQGTLVTVSS
notes: anti-HER2/TROP2 BsAb, C220S in the hinge region; also called N-, C-terminal format BsAb; lead BsAb
For B7, the “IC50, nM, Killing of NCI-H441 cells by 2nd Ab-MMAE” value [3] was 0.15 nM, the binding result [7] was “binds” and the binding result [4] was “binds”.

B8: 11D5_Fc_1H11-hv10 (bispecific antibody)
chain: QVQLVESGGGVVQPGRSLRLSCAASGSTFSSLAMHWVRQAPGKERELVAAISYSGGYTYYADSVKGRFTISRDNSKNTLYLQMNSLRAEDTAVYYCAASSIFIGAYDYWGQGTLVTVSS[here human IgG1 Fc with C220S (EU numbers) without letters]GSGGSGGSGGSGGSGEVQLVESGGGLVQPGGSLRLSCAASGGTFSRYIMSWFRQAPGKEREFVSAISGSGGSTYYADSVKGRFTISRDNSKNTLYLQMNSLRAEDTAVYYCASTFYSTTYVAQRDARDYAYWGQGTQVTVSS
notes: as for B1
B8 gave an EC50 [1] of 36.6 nM and an EC50 [2] of 0.85 nM.
